The labels stand for the following.
B1: glmS ribozyme (parent)
chain: AUAAAAGCGCCAGAACUACAGAAAUGUAGUUGACGAGGAGGAGGUUUAUCGAAUUUUCGGCGGAUGCCUCCAAA

± gives the standard error. Variants at the background level are over-represented here.

Settings in all cases: with glucosamine-6-phosphate
Variants of B1 are the subject of data set [1]. Description: self-cleavage kobs at 640 uM GlcN6P; higher = faster cleavage; RNA array. An outline of the steps:
(§1)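 Using a hybridised Cy3 probe at 37 °C, barcoded ribozyme variants transcribed in situ by E. coli RNA polymerase on sequenced MiSeq chips were monitored across tiles imaged over ~14 h. The flow contained glucosamine-6-phosphate from 40 μM to 10 mM in HEPES/KCl/Mg(OAc)2 buffer. Signals were normalised to baseline and to non-cleaving reference variants before per-tile medians were fit to one- or two-exponential decays to yield kobs. Weighted Michaelis–Menten fits across concentrations gave kcat and KM.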

In data set [2] the parent is B1. Description: self-cleavage kobs at 160 uM GlcN6P; higher = faster cleavage; RNA array. Summed up: as §1
Variants of B1 are the subject of data set [3]. Description: self-cleavage kobs at 2500 uM GlcN6P; higher = faster cleavage; RNA array. Summed up:
as §1

Variants of B1 are the subject of data set [4]. Description: self-cleavage kobs at 10000 uM GlcN6P; higher = faster cleavage; RNA array. An outline of the steps: as §1

Consider A14U U31G A39C, for which, in data set [1], the “self-cleavage kobs at 640 uM GlcN6P” value is 0.000117 ± 2.6e-05 s⁻¹. Moreover, the “self-cleavage kobs at 160 uM GlcN6P” value in data set [2] turned out to be 5.41e-05 ± 2e-05 s⁻¹.
In the same order, the values of A15U U46C are 0.000111 ± 1.1e-05 s⁻¹ and 2.98e-05 ± 1.3e-05 s⁻¹.
Consider A14U U30A C34G, for which, in data set [1], the “self-cleavage kobs at 640 uM GlcN6P” value is below 1e-05 s⁻¹.
Still for that read-out and setting: as for U30A A48C C58A G60A, the figure is below 1e-05 s⁻¹.
As to A15C U65A, the “self-cleavage kobs at 640 uM GlcN6P” value in data set [1] was 0.000177 ± 2.9e-05 s⁻¹. In addition, in data set [2], the “self-cleavage kobs at 160 uM GlcN6P” value worked out at 3.48e-05 ± 1.4e-05 s⁻¹. Besides, the “self-cleavage kobs at 2500 uM GlcN6P” value in data set [3] is 0.000234 ± 5.7e-05 s⁻¹. Moreover, the “self-cleavage kobs at 10000 uM GlcN6P” value in data set [4] was 0.000807 ± 0.00016 s⁻¹.
The like results for G29A G51C were, in that order, below 1e-05 s⁻¹, below 1e-05 s⁻¹, below 1e-05 s⁻¹ and below 1e-05 s⁻¹.
Consider A15C G38U G44A, for which, in data set [1], the “self-cleavage kobs at 640 uM GlcN6P” value is below 1e-05 s⁻¹. The “self-cleavage kobs at 2500 uM GlcN6P” value in data set [3] was below 1e-05 s⁻¹.
With C16A G32U, the “self-cleavage kobs at 640 uM GlcN6P” value in data set [1] amounted to 5.63e-05 ± 1e-05 s⁻¹. Besides, the “self-cleavage kobs at 2500 uM GlcN6P” value in data set [3] turned out to be 0.000143 ± 2.8e-05 s⁻¹. The “self-cleavage kobs at 10000 uM GlcN6P” value in data set [4] was 0.000363 ± 6.7e-05 s⁻¹.
Take A15U G37C U47A: the “self-cleavage kobs at 640 uM GlcN6P” value in data set [1] was below 1e-05 s⁻¹.
Regarding C16U U56G G60A A64U, the “self-cleavage kobs at 640 uM GlcN6P” value in data set [1] is below 1e-05 s⁻¹. Besides, the “self-cleavage kobs at 160 uM GlcN6P” value in data set [2] is below 1e-05 s⁻¹. For the same variant, the “self-cleavage kobs at 2500 uM GlcN6P” value in data set [3] was below 1e-05 s⁻¹.
As for G29A A52C U57G A64G C71A, in data set [1], the “self-cleavage kobs at 640 uM GlcN6P” value is below 1e-05 s⁻¹.
Consider C16A A39U U54C, for which the “self-cleavage kobs at 640 uM GlcN6P” value in data set [1] is 0.000107 ± 2.9e-05 s⁻¹. In addition, in data set [3], the “self-cleavage kobs at 2500 uM GlcN6P” value is 0.000434 ± 9.7e-05 s⁻¹. Moreover, the “self-cleavage kobs at 10000 uM GlcN6P” value in data set [4] stood at 0.000811 ± 0.00017 s⁻¹.
Consider G29U A53C G62C, for which the “self-cleavage kobs at 640 uM GlcN6P” value in data set [1] was below 1e-05 s⁻¹.
For U30A C70G, the “self-cleavage kobs at 640 uM GlcN6P” value in data set [1] is 6.45e-05 ± 1.5e-05 s⁻¹. The “self-cleavage kobs at 160 uM GlcN6P” value in data set [2] worked out at 6.81e-05 ± 1.8e-05 s⁻¹.
On to A15C U46C, for which the “self-cleavage kobs at 640 uM GlcN6P” value in data set [1] stood at 0.000119 ± 1.9e-05 s⁻¹. The “self-cleavage kobs at 2500 uM GlcN6P” value in data set [3] is 0.000176 ± 2.5e-05 s⁻¹. In addition, in data set [4], the “self-cleavage kobs at 10000 uM GlcN6P” value was found to be 0.000295 ± 4.8e-05 s⁻¹.
Regarding C16A A36C A52U, in data set [1], the “self-cleavage kobs at 640 uM GlcN6P” value was below 1e-05 s⁻¹.
With A15G C16A A39U G62C, the “self-cleavage kobs at 640 uM GlcN6P” value in data set [1] is below 1e-05 s⁻¹. The “self-cleavage kobs at 2500 uM GlcN6P” value in data set [3] is below 1e-05 s⁻¹.
In the case of U30G G38A C70A, in data set [1], the “self-cleavage kobs at 640 uM GlcN6P” value was below 1e-05 s⁻¹. Besides, the “self-cleavage kobs at 2500 uM GlcN6P” value in data set [3] was below 1e-05 s⁻¹.
Regarding C16U G35C G37A, in data set [1], the “self-cleavage kobs at 640 uM GlcN6P” value is below 1e-05 s⁻¹.
Turning to G29C A36C U45G G66U, the “self-cleavage kobs at 640 uM GlcN6P” value in data set [1] was below 1e-05 s⁻¹.
Regarding C19A G35U, the “self-cleavage kobs at 640 uM GlcN6P” value in data set [1] was below 1e-05 s⁻¹. The “self-cleavage kobs at 2500 uM GlcN6P” value in data set [3] was below 1e-05 s⁻¹.
On to G29A G32A C71A, for which, in data set [1], the “self-cleavage kobs at 640 uM GlcN6P” value was found to be 6.03e-05 ± 2.6e-05 s⁻¹. The “self-cleavage kobs at 10000 uM GlcN6P” value in data set [4] was determined as 0.000201 ± 4.4e-05 s⁻¹.
As to C16A G66U C68A, in data set [1], the “self-cleavage kobs at 640 uM GlcN6P” value amounted to 0.0001 ± 3.2e-05 s⁻¹.
With C16A G32A C70G, the “self-cleavage kobs at 640 uM GlcN6P” value in data set [1] came out at 7.42e-05 ± 3e-05 s⁻¹. Further, the “self-cleavage kobs at 10000 uM GlcN6P” value in data set [4] is 0.000127 ± 3.4e-05 s⁻¹.
With G29C G35U A39U, the “self-cleavage kobs at 640 uM GlcN6P” value in data set [1] was below 1e-05 s⁻¹.
Regarding G29C C71G, in data set [1], the “self-cleavage kobs at 640 uM GlcN6P” value turned out to be 3.96e-05 ± 1.4e-05 s⁻¹. For the same variant, in data set [2], the “self-cleavage kobs at 160 uM GlcN6P” value turned out to be 5.06e-05 ± 1.3e-05 s⁻¹. Also, the “self-cleavage kobs at 2500 uM GlcN6P” value in data set [3] stood at 8.9e-05 ± 1.2e-05 s⁻¹. Also, the “self-cleavage kobs at 10000 uM GlcN6P” value in data set [4] is 8.49e-05 ± 1e-05 s⁻¹.
For C16G U65A, the “self-cleavage kobs at 640 uM GlcN6P” value in data set [1] was 0.000107 ± 1.4e-05 s⁻¹.
Take C16A U46C C68A: in data set [1], the “self-cleavage kobs at 640 uM GlcN6P” value was below 1e-05 s⁻¹.
Regarding U30C G35A A52U, the “self-cleavage kobs at 640 uM GlcN6P” value in data set [1] was below 1e-05 s⁻¹. Besides, the “self-cleavage kobs at 2500 uM GlcN6P” value in data set [3] is below 1e-05 s⁻¹.
For the variant U30C U69A, in data set [1], the “self-cleavage kobs at 640 uM GlcN6P” value was 0.000111 ± 3e-05 s⁻¹. Besides, the “self-cleavage kobs at 160 uM GlcN6P” value in data set [2] was found to be 5.29e-05 ± 1.5e-05 s⁻¹. The “self-cleavage kobs at 2500 uM GlcN6P” value in data set [3] is 5.71e-05 ± 1.2e-05 s⁻¹. Further, in data set [4], the “self-cleavage kobs at 10000 uM GlcN6P” value is 2.76e-05 ± 6.9e-06 s⁻¹.

These data come from the supplement of paper PMC7125110.
